Experimental data reported in the supplement of paper PMC3334620.
Whole data set: some 33,000 sequences, median “E-score (-0.5 to 0.5)” near -0.021, cut for the highest 2% near 0.32. This is one part of the list.

What follows are sequences tested against T1, Zap1 (UniProt P47043) (assay: PBM E-score (8-mer binding enrichment) (E-score (-0.5 to 0.5)); higher = stronger / more preferred TF binding; most listed sequences are background and not binding sites). Details: protein concentration: 200 nM; construct: GST-full length.
T1 sequence: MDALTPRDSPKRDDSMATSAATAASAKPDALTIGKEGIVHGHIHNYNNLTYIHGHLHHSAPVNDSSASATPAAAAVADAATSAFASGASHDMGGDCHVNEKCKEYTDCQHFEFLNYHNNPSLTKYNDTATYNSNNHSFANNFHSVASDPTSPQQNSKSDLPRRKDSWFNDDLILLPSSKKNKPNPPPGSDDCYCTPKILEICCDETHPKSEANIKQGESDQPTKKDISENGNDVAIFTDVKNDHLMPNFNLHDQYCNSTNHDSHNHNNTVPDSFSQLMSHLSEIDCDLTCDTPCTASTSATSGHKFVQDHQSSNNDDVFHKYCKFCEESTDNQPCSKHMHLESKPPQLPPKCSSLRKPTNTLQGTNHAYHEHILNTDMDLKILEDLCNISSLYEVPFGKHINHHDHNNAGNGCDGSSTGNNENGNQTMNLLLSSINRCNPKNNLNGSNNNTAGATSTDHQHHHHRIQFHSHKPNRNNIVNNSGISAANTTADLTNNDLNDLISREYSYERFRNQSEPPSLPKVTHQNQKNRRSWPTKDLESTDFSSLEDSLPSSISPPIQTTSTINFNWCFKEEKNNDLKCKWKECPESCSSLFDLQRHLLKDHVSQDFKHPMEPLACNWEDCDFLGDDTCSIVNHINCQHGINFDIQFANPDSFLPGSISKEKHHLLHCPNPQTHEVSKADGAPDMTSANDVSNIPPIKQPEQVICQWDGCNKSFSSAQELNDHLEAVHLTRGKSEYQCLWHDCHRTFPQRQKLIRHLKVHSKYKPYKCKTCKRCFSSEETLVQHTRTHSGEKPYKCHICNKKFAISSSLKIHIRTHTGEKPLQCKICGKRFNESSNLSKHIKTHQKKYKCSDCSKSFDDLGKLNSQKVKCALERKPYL
Method: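 Universal 'all 10-mer' protein binding microarrays (Agilent AMADID 015681) probed with GST-tagged S. cerevisiae TFs (full-length or DBD) made by in vitro transcription/translation (PURExpress), about 100-200 nM. Bound TF was detected with fluorescent anti-GST. Each ungapped 8-mer (which stands for itself and its reverse complement) is scored by the PBM enrichment score (E-score), a modified Wilcoxon-Mann-Whitney statistic from -0.5 to +0.5, computed with the Universal PBM Analysis Suite. Scale: above 0.35 generally sequence-specific binding.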

Row | Sequence | PBM E-score
1 | AACAAAGA | 0.0702
2 | CTGGAGTA | -0.0302
3 | CTGTGCGA | -0.128
4 | CGTGAGTC | -0.324
5 | CGCCCATC | -0.171
6 | CAACACGC | -0.167
7 | GCTACGGA | -0.156
8 | AGACTTCG | -0.271
9 | ACGCCTAA | -0.0172
10 | ACCCCCAA | -0.0064
11 | AGTTCTGC | -0.178
12 | AAACCTCC | -0.0251
13 | CGCGTACG | -0.102
14 | ACTAATAA | 0.193
15 | CGATCTAG | -0.0463
16 | ACTCCGAT | -0.161
17 | ATGGGCTC | 0.00514
18 | AGACCTTG | 0.0826
19 | ACGGAACA | -0.0983
20 | CAAGCTTC | -0.132
21 | ACCGGCTG | 0.024
22 | CTTACTGC | -0.166

Row | Sequence | PBM E-score
23 | CATACCCC | 0.348
24 | ACCGCGAA | 0.359
25 | GCGACGTA | -0.0634
26 | GTTATCAA | 0.203
27 | CCAATAAC | 0.297
28 | GCCCCTCA | -0.12
29 | GGTCATAC | 0.313
30 | AACGTGAA | 0.0028
31 | CTTATGGA | 0.0448
32 | ATCAGCGA | 0.00112
33 | ATCGATCG | -0.118
34 | ATGATGGA | -0.0025
35 | AATAGCTC | -0.301
36 | CGACACGC | -0.0689
37 | GGCTAACC | 0.0105
38 | GCTCGTCA | -0.215
39 | AAACTAAA | 0.187
40 | ACAGCTAC | -0.119
41 | GAAGAAAC | 0.0174
42 | CTAATGTA | 0.14
43 | ATAACGCA | 0.0731
44 | TAACCACA | 0.417

Row | Sequence | PBM E-score
45 | GTAGGTAA | 0.199
46 | CCGGAAAG | 0.0082
47 | CATCGCTA | 0.086
48 | TGTAAACA | 0.122
49 | CGGGAAAG | -0.321
50 | ACGGTCAT | 0.359
51 | CTTCTGTC | -0.109
52 | CTCTGACC | 0.057
53 | ACATGTAC | -0.00528
54 | CGCATTTC | 0.0517
55 | GCATACCA | -0.0787
56 | ACCCCCGA | -0.071
57 | ACCCATGA | 0.176
58 | ACGGATGC | -0.0525
59 | TGGATCAA | -0.0172
60 | CCAAATCA | 0.0196
61 | GGGAACTA | 0.00638
62 | GGACGTAA | -0.0324
63 | CACGGAGC | -0.205
64 | AGAGTGGC | -0.141
65 | GGCTCCAA | -0.152
66 | GATGAAGA | -0.157

Row | Sequence | PBM E-score
67 | GAGCCCGC | -0.354
68 | ATCGCATC | -0.0331
69 | CAGTCGAC | 0.104
70 | ATAGACCC | 0.155
71 | AGTCTGTA | -0.0875
72 | ATAATGAC | -0.168
73 | AGGTTGAG | 0.0807
74 | TGTCCGAA | 0.0316
75 | AACTTCGC | 0.011
76 | CTGCGCCA | -0.151
77 | ACAGGAGC | -0.122
78 | CTGTTTTC | -0.0833
79 | AACCTCTA | 0.351
80 | GTGCGGTA | 0.217
81 | CCAGCAGG | -0.111
82 | CTTACTCA | -0.219
83 | AGTAGAGC | -0.211
84 | AGCTCAAT | -0.092
85 | AACTGGAG | -0.103
86 | AGGTCTGC | -0.175
